# In the supplement of paper PMC8728848:
# The other results are listed elsewhere or left out.
# B1: Morniga (Morus nigra) (protein)
# chain: MAGTSTNTQTTGTSQTVEVGLWGGPGGNAWDDGSYTGIREINLSHGDAIGAFSVIYDLNGQPFTGPTHPGNEPSFKTVKITLDFPNEFLVSVSGYTGVLPRLATGKDVIRSLTFKTNKKTYGPYGKEEGTPFSLPIENGLIVGFKGRSGFVVDAIGVHLS
# How the values were obtained:
# Test in all cases: glycan array binding signal (z-score within array); higher = stronger binding
# Settings in all cases: glycan notation: IUPAC condensed, linker removed
# Gal(b1-4)Glc6S = molecular target: Gal(b1-4)Glc6S
# Outline: (§1)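 The binding signal is a Z-score computed within each array. Data were drawn from 3228 arrays in the Consortium for Functional Glycomics database, restricted to those with a known protein sequence. Scores were averaged over arrays of the same protein sequence at different concentrations or buffers, and over linkers, and negative values can be taken as non-binding.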
# Gal(b1-4)GlcNAc = molecular target: Gal(b1-4)GlcNAc
# Outline: as §1
# [1] = molecular target: Gal(b1-4)GlcNAc(a1-6)Gal(b1-4)GlcNAc
# Outline: as §1
# Gal(b1-4)GlcNAc(b1-2)Man = molecular target: Gal(b1-4)GlcNAc(b1-2)Man
# Outline: as §1
# [2] = molecular target: Gal(b1-4)GlcNAc(b1-2)Man(a1-3)Man(b1-4)GlcNAc(b1-4)GlcNAc
# Outline: as §1
# [3] = molecular target: Gal(b1-4)GlcNAc(b1-2)Man(a1-3)[Gal(b1-4)GlcNAc(b1-2)Man(a1-6)]Man(b1-4)GlcNAc(b1-4)GlcNAc
# Outline: as §1
# [4] = molecular target: Gal(b1-4)GlcNAc(b1-2)Man(a1-3)[Gal(b1-4)GlcNAc(b1-2)Man(a1-6)]Man(b1-4)GlcNAc(b1-4)[Fuc(a1-6)]GlcNAc
# Outline: as §1
# [5] = molecular target: Gal(b1-4)GlcNAc(b1-2)Man(a1-3)[Gal(b1-4)GlcNAc(b1-2)][GlcNAc(b1-4)]Man(b1-4)GlcNAc(b1-4)GlcNAc
# Outline: as §1
# [6] = molecular target: Gal(b1-4)GlcNAc(b1-2)Man(a1-3)[GlcNAc(b1-2)Man(a1-6)]Man(b1-4)GlcNAc(b1-4)GlcNAc
# Outline: as §1
# [7] = molecular target: Gal(b1-4)GlcNAc(b1-2)Man(a1-3)[Man(a1-6)]Man(b1-4)GlcNAc(b1-4)GlcNAc
# Outline: as §1
# [8] = molecular target: Gal(b1-4)GlcNAc(b1-2)Man(a1-6)Man(b1-4)GlcNAc(b1-4)GlcNAc
# Outline: as §1
# [9] = molecular target: Gal(b1-4)GlcNAc(b1-2)Man(a1-6)[GlcNAc(b1-2)Man(a1-3)]Man(b1-4)GlcNAc(b1-4)GlcNAc
# Outline: as §1
# [10] = molecular target: Gal(b1-4)GlcNAc(b1-2)Man(a1-6)[Man(a1-3)]Man(b1-4)GlcNAc(b1-4)GlcNAc
# Outline: as §1
# [11] = molecular target: Gal(b1-4)GlcNAc(b1-2)[Gal(b1-4)GlcNAc(b1-4)]Man(a1-3)[Gal(b1-4)GlcNAc(b1-2)Man(a1-6)]Man(b1-4)GlcNAc(b1-4)GlcNAc
# Outline: as §1
# [12] = molecular target: Gal(b1-4)GlcNAc(b1-2)[Gal(b1-4)GlcNAc(b1-4)]Man(a1-3)[Gal(b1-4)GlcNAc(b1-2)[Gal(b1-4)GlcNAc(b1-6)]Man(a1-6)]Man(b1-4)GlcNAc(b1-4)GlcNAc
# Outline: as §1
# [13] = molecular target: Gal(b1-4)GlcNAc(b1-2)[Gal(b1-4)GlcNAc(b1-4)]Man(a1-3)[GlcNAc(b1-4)][Gal(b1-4)GlcNAc(b1-2)Man(a1-6)]Man(b1-4)GlcNAc(b1-4)GlcNAc
# Outline: as §1
# [14] = molecular target: Gal(b1-4)GlcNAc(b1-2)[Gal(b1-4)GlcNAc(b1-4)]Man(a1-3)[GlcNAc(b1-4)][Gal(b1-4)GlcNAc(b1-2)[Gal(b1-4)GlcNAc(b1-6)]Man(a1-6)]Man(b1-4)GlcNAc(b1-4)GlcNAc
# Outline: as §1
# [15] = molecular target: Gal(b1-4)GlcNAc(b1-2)[Gal(b1-4)GlcNAc(b1-4)]Man(a1-3)[GlcNAc(b1-4)][Gal(b1-4)GlcNAc(b1-2)[Gal(b1-4)GlcNAc(b1-6)]Man(a1-6)]Man(b1-4)GlcNAc(b1-4)[Fuc(a1-6)]GlcNAc
# Outline: as §1
# [16] = molecular target: Gal(b1-4)GlcNAc(b1-2)[Gal(b1-4)GlcNAc(b1-6)]Man(a1-6)[Gal(b1-4)GlcNAc(b1-2)Man(a1-3)]Man(b1-4)GlcNAc(b1-4)GlcNAc
# Outline: as §1
# [17] = molecular target: Gal(b1-4)GlcNAc(b1-2)[Gal(b1-4)GlcNAc(b1-6)]Man(a1-6)[Gal(b1-4)GlcNAc(b1-2)Man(a1-3)]Man(b1-4)GlcNAc(b1-4)[Fuc(a1-6)]GlcNAc
# Outline: as §1
# [18] = molecular target: Gal(b1-4)GlcNAc(b1-2)[Gal(b1-4)GlcNAc(b1-6)]Man(a1-6)[GlcNAc(b1-4)][Gal(b1-4)GlcNAc(b1-2)Man(a1-3)]Man(b1-4)GlcNAc(b1-4)GlcNAc
# Outline: as §1
# [19] = molecular target: Gal(b1-4)GlcNAc(b1-3)Gal(b1-3)GlcNAc
# Outline: as §1
# [20] = molecular target: Gal(b1-4)GlcNAc(b1-3)Gal(b1-4)Glc
# Outline: as §1
# [21] = molecular target: Gal(b1-4)GlcNAc(b1-3)Gal(b1-4)GlcNAc
# Outline: as §1
# [22] = molecular target: Gal(b1-4)GlcNAc(b1-3)Gal(b1-4)GlcNAc(b1-3)Gal(b1-4)GlcNAc
# Outline: as §1
# [23] = molecular target: Gal(b1-4)GlcNAc(b1-3)Gal(b1-4)[Fuc(a1-3)GlcNAc(b1-6)]Gal(b1-4)Glc
# Outline: as §1
# [24] = molecular target: Gal(b1-4)GlcNAc(b1-3)Gal(b1-4)[Fuc(a1-3)]GlcNAc(b1-3)Gal(b1-4)[Fuc(a1-3)]GlcNAc
# Outline: as §1
# [25] = molecular target: Gal(b1-4)GlcNAc(b1-3)GalNAc
# Outline: as §1
# [26] = molecular target: Gal(b1-4)GlcNAc(b1-3)[Gal(b1-4)GlcNAc(b1-6)]Gal(b1-4)GlcNAc
# Outline: as §1
# [27] = molecular target: Gal(b1-4)GlcNAc(b1-3)[Gal(b1-4)GlcNAc(b1-6)]GalNAc
# Outline: as §1
# [28] = molecular target: Gal(b1-4)GlcNAc(b1-3)[GlcNAc(b1-6)]Gal(b1-4)GlcNAc
# Outline: as §1
# [29] = molecular target: Gal(b1-4)GlcNAc(b1-6)Gal(b1-4)GlcNAc
# Outline: as §1
# [30] = molecular target: Gal(b1-4)GlcNAc(b1-6)GalNAc
# Outline: as §1
# [31] = molecular target: Gal(b1-4)GlcNAc(b1-6)[Gal(b1-3)]GalNAc
# Outline: as §1
# Gal(b1-4)GlcNAc6P = molecular target: Gal(b1-4)GlcNAc6P
# Outline: as §1
# Gal(b1-6)Gal = molecular target: Gal(b1-6)Gal
# Outline: as §1
# Gal3S(b1-3)GalNAc = molecular target: Gal3S(b1-3)GalNAc
# Outline: as §1
# Gal3S(b1-3)GlcNAc = molecular target: Gal3S(b1-3)GlcNAc
# Outline: as §1
# [32] = molecular target: Gal3S(b1-3)[Fuc(a1-4)]GlcNAc
# Outline: as §1
# Gal3S(b1-4)Glc = molecular target: Gal3S(b1-4)Glc
# Outline: as §1
# Gal3S(b1-4)Glc6S = molecular target: Gal3S(b1-4)Glc6S
# Outline: as §1
# Gal3S(b1-4)GlcNAc = molecular target: Gal3S(b1-4)GlcNAc
# Outline: as §1
# Gal3S(b1-4)GlcNAc6S = molecular target: Gal3S(b1-4)GlcNAc6S
# Outline: as §1
# [33] = molecular target: Gal3S(b1-4)[Fuc(a1-3)]Glc
# Outline: as §1
# [34] = molecular target: Gal3S(b1-4)[Fuc(a1-3)]Glc6S
# Outline: as §1
binder,measurement,setting,value
B1,glycan array binding signal (z-score),Gal(b1-4)Glc6S,-0.338
same,glycan array binding signal (z-score),Gal(b1-4)GlcNAc,-0.336
same,glycan array binding signal (z-score),[1],-0.338
same,glycan array binding signal (z-score),Gal(b1-4)GlcNAc(b1-2)Man,-0.333
same,glycan array binding signal (z-score),[2],4.3
same,glycan array binding signal (z-score),[3],3.33
same,glycan array binding signal (z-score),[4],0.968
same,glycan array binding signal (z-score),[5],1.41
same,glycan array binding signal (z-score),[6],2.78
same,glycan array binding signal (z-score),[7],4.49
same,glycan array binding signal (z-score),[8],-0.335
same,glycan array binding signal (z-score),[9],2.39
same,glycan array binding signal (z-score),[10],4.24
same,glycan array binding signal (z-score),[11],0.239
same,glycan array binding signal (z-score),[12],0.204
same,glycan array binding signal (z-score),[13],-0.333
same,glycan array binding signal (z-score),[14],-0.337
same,glycan array binding signal (z-score),[15],-0.324
same,glycan array binding signal (z-score),[16],2.5
same,glycan array binding signal (z-score),[17],1.6
same,glycan array binding signal (z-score),[18],1.45
same,glycan array binding signal (z-score),[19],-0.331
same,glycan array binding signal (z-score),[20],-0.339
same,glycan array binding signal (z-score),[21],-0.339
same,glycan array binding signal (z-score),[22],-0.336
same,glycan array binding signal (z-score),[23],-0.329
same,glycan array binding signal (z-score),[24],-0.324
same,glycan array binding signal (z-score),[25],-0.338
same,glycan array binding signal (z-score),[26],-0.339
same,glycan array binding signal (z-score),[27],-0.334
same,glycan array binding signal (z-score),[28],-0.331
same,glycan array binding signal (z-score),[29],-0.33
same,glycan array binding signal (z-score),[30],-0.331
same,glycan array binding signal (z-score),[31],-0.339
same,glycan array binding signal (z-score),Gal(b1-4)GlcNAc6P,-0.325
same,glycan array binding signal (z-score),Gal(b1-6)Gal,-0.326
same,glycan array binding signal (z-score),Gal3S(b1-3)GalNAc,-0.339
same,glycan array binding signal (z-score),Gal3S(b1-3)GlcNAc,-0.342
same,glycan array binding signal (z-score),[32],-0.33
same,glycan array binding signal (z-score),Gal3S(b1-4)Glc,-0.332
same,glycan array binding signal (z-score),Gal3S(b1-4)Glc6S,-0.342
same,glycan array binding signal (z-score),Gal3S(b1-4)GlcNAc,-0.335
same,glycan array binding signal (z-score),Gal3S(b1-4)GlcNAc6S,-0.335
same,glycan array binding signal (z-score),[33],-0.324
same,glycan array binding signal (z-score),[34],-0.294
